The subject of the data set is ATP. Nature of the data set: switch fluorescence ratio, 500 uM ATP over buffer (Cy3 cluster intensity, sum of 5 cycles each) (fold (ratio)); higher = stronger signal-on switching upon ATP binding; sequences stand for … in TCGTCGGCAGCGTCAGATGTGTATAAGAGACAGTTTTTTTTTTTTTTTTTTTTTTTTT…TC. The settings on record: aptamer strand: ATP DNA aptamer (quencher-CACCTGGGGGAGTATTGCGGAGGAAGG + anchor), 100 nM annealed; ATP concentration: 500 uM; one replicate. The method, boiled down:
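For every switch-domain sequence, the fluorescence ratio is the mean of per-cluster values, each being summed target-cycle Cy3 intensity over summed buffer-cycle Cy3 intensity. Clusters outside 100-1000 RFU were excluded. On a modified Illumina MiSeq flow-cell, the Cy3-labelled switching-strand clusters were annealed to 100 nM quencher-labelled ATP aptamer, imaged in selection buffer and then after 15 min with 500 uM ATP at 22 °C. Five such cycles were run, with NaOH stripping and re-annealing between them.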

Drawing on the supplement of paper PMC10126150, this text covers switch fluorescence ratio for 120 sequences.

Values marked as one replicate rest on one cluster of the flow cell; about a third of the high ones do not repeat.
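Note: ATP exposure 15 min at 22 °C before imaging.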

Turning to CACGTCCAAT, the switch fluorescence ratio came out at 1.12.
GAGAATATTT: the switch fluorescence ratio was found to be 1.01.
Consider TGTATTAATT, for which the switch fluorescence ratio came to 1.03.
The figure for GGGTTTCCAT is 0.991.
As for CCCCTCACCA, the figure is 1.04.
As for ATACTTAACT, the figure is 1.14.
With AGGCTCTCCA, the switch fluorescence ratio was 0.968.
Take AGATAACCAG: the switch fluorescence ratio was 1.03.
For the sequence GCTTACGGAG, the switch fluorescence ratio came to 1.18.
For the sequence TTTAACGAGA, the switch fluorescence ratio came to 1.04.
As for GTGGTCTTGG, the switch fluorescence ratio is 0.973.
For the sequence TAAATGTAAG, the switch fluorescence ratio came to 1.
For TCCAGGCAA, the switch fluorescence ratio amounted to 4.12.
The figure for AAGGTATCAA is 1.05; for GGGTTCCTTT it is 1.01; for CGATACTGGT it is 1.
Turning to CTACGTCGGC, the switch fluorescence ratio amounted to 1.28.
As for ATCGGGTATT, the switch fluorescence ratio turned out to be 1.02.
The figure for TGTGTGAATC is 0.969.
With TGTGGCGC, the switch fluorescence ratio was 0.98.
On to GCCTCAACTA, for which the switch fluorescence ratio turned out to be 1.01.
On to GAACTTAC, for which the switch fluorescence ratio was 1.32.
For TTGTATGCGC, the switch fluorescence ratio was 1.01.
For TAAATATGGA, the switch fluorescence ratio came out at 0.975.
Take TAAATTACAT: the switch fluorescence ratio was determined as 0.981.
In the case of GTGGTTCAGG, the switch fluorescence ratio was 0.972.
As for ATGTCAGGCA, the figure is 1.
Regarding TAATTCAGAC, the switch fluorescence ratio came out at 1.1.
Consider AGTCATGTAC, for which the switch fluorescence ratio is 1.12.
For CCGGTTATCT, the switch fluorescence ratio came out at 1.06.
As for GTGTCAGGC, the figure is 1.
In the case of TCGCCATGCC, the switch fluorescence ratio was 1.
The figure for ATGCAGATTT is 1; for CTGTCGCA it is 1.41.
As for TGTATTGATA, the switch fluorescence ratio was found to be 1.02.
Take TTGTCGAACA: the switch fluorescence ratio was determined as 1.1.
The figure for AATTGAAGGT is 0.954.
The figure for TTACCCACTA is 1.39; for CTATACAGAG it is 1.03; for CCTAAGGGTA it is 0.963.
As for GCTTTGGGAG, the switch fluorescence ratio worked out at 1.03.
Consider GTGTGATGGC, for which the switch fluorescence ratio came out at 1.01.
The figure for GATCTGGTGG is 1.
The figure for TCCTAGGGTT is 1.03; for TGATGCTACA it is 0.989; for CAAAAGACCA it is 0.987.
With ACGATGGATC, the switch fluorescence ratio worked out at 1.08.
GTAGCAGGAT: the switch fluorescence ratio came to 1.03.
Take AAACTAGTTG: the switch fluorescence ratio was found to be 0.928.
In the case of CGACGAGAAA, the switch fluorescence ratio amounted to 1.03.
Take CTGAACCTAT: the switch fluorescence ratio turned out to be 1.04.
As for GGCAGATGAT, the switch fluorescence ratio was found to be 1.04.
In the case of CACTTGAGTA, the switch fluorescence ratio was determined as 0.988.
With CACGATTCCT, the switch fluorescence ratio was determined as 1.05.
Take CAACTCTGTG: the switch fluorescence ratio worked out at 0.986.
Regarding TCGTCGTCTC, the switch fluorescence ratio worked out at 0.991.
As for GACGCGGCCG, the figure is 1.06; as for GCGGCCAAGA, 0.996; as for GTCCTTTGGC, 1.04.
The figure for AGGGCGGAAT is 1.01; for CAGCTGGAGT it is 0.999; for GTTGTAGTG it is 0.981.
As for TTTTCGGCTA, the switch fluorescence ratio worked out at 0.954.
As for TCTTCAAGAG, the switch fluorescence ratio was determined as 1.01.
As for ATACATCGAC, the figure is 1.09; as for TCGTACTTTG, 0.981; as for CGTCTTGATG, 1.03.
For AGCCCTACTA, the switch fluorescence ratio was determined as 1.05.
In the case of ACTGGACGAA, the switch fluorescence ratio worked out at 1.06.
As for TGCCCTAGAA, the figure is 1.01.
As for ATCAATTTCG, the switch fluorescence ratio came to 1.08.
Turning to CCATAATCCG, the switch fluorescence ratio is 1.07.
In the case of ACGCTCACAC, the switch fluorescence ratio turned out to be 1.6.
As to TACTTTGAAA, the switch fluorescence ratio is 0.959.
Regarding TGTTGCAGGG, the switch fluorescence ratio was 1.03.
Take CCACGGAGTC: the switch fluorescence ratio is 1.1.
With TCCAGCCTA, the switch fluorescence ratio amounted to 1.05.
As for GTGGGAGGTC, the figure is 0.927.
CTCGCGGAGT: the switch fluorescence ratio was found to be 0.998.
With TAACGCGGCT, the switch fluorescence ratio stood at 1.04.
Consider CACGTAAGCA, for which the switch fluorescence ratio was 1.1.
Regarding GGGCGCCACA, the switch fluorescence ratio stood at 0.974.
As for GCGGAACCCT, the switch fluorescence ratio came out at 1.09.
For the sequence TCTCTTCGGG, the switch fluorescence ratio came to 1.03.
As for TGTTGTCGCC, the figure is 1.01; as for GAATTTATTG, 1.
As for GAGTTGCTTG, the figure is 1.04; as for TGTCGGCCTT, 0.984; as for ACAATGGAGG, 1.02.
On to CGGGTTCGGT, for which the switch fluorescence ratio worked out at 1.
Consider TATATCGATC, for which the switch fluorescence ratio was found to be 1.02.
As to CAACGGTAAC, the switch fluorescence ratio is 1.27.
Take ATAACTTAGA: the switch fluorescence ratio turned out to be 0.999.
On to GAACCCACGC, for which the switch fluorescence ratio was 1.43.
Consider CGATAGTTCG, for which the switch fluorescence ratio is 0.953.
Regarding ACAAGTAGGG, the switch fluorescence ratio is 1.01.
CCCCTGTCTT: the switch fluorescence ratio was 1.01.
ACAGCTATGC: the switch fluorescence ratio came out at 1.09.
Regarding AAGTATTACA, the switch fluorescence ratio worked out at 1.03.
CAGGAGATTG: the switch fluorescence ratio was 0.989.
Consider TGAAACAGGG, for which the switch fluorescence ratio came out at 1.02.
In the case of AGGCATGGGT, the switch fluorescence ratio came to 1.1.
With TTCCTAAACG, the switch fluorescence ratio is 1.06.
In the case of AAAGTTCGGT, the switch fluorescence ratio was 0.948.
Take TGCGACTTCT: the switch fluorescence ratio came out at 1.04.
Take TGTGTTCATA: the switch fluorescence ratio was 1.02.
Turning to AAGTTCTCCT, the switch fluorescence ratio is 0.979.
For GTCATTGCTC, the switch fluorescence ratio worked out at 1.1.
For the sequence GAGCTAATGT, the switch fluorescence ratio turned out to be 1.02.
For CACCAGGCGT, the switch fluorescence ratio worked out at 3.01.
In the case of TAAGAGAAAG, the switch fluorescence ratio was 1.01.
Take TTCCCCGGCG: the switch fluorescence ratio amounted to 1.33.
Turning to GTTAGTTTTA, the switch fluorescence ratio was found to be 1.03.
GATGGGTGGC: the switch fluorescence ratio amounted to 0.905.
As for GCACGCAAGG, the figure is 1.3; as for GAATATAGGC, 0.959; as for CTCATGAGAC, 1.02.
For the sequence GATCTTGACC, the switch fluorescence ratio worked out at 1.03.
Take GCATCTTGAC: the switch fluorescence ratio stood at 1.04.
As for AAGGTCAGAA, the figure is 0.96.
